# Assay results: PMC4336329 (PLoS ONE, 2015)
# The whole screen tested about 310,000 compounds, of which about 14,000 (4.5%) showed an effect of 50% or more. Effects have a minus sign here. This is one part of the list.
# Target: human ether-à-go-go-related gene (hERG) potassium channel (human, UniProt Q12809)
# Test: primary screen, population patch clamp on CHO cells stably expressing hERG
# 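Further: peak tail current of the secondary pulse compared with the same well before compound.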
# Sequence of human ether-à-go-go-related gene (hERG) potassium channel (Q12809 whole entry, looked up): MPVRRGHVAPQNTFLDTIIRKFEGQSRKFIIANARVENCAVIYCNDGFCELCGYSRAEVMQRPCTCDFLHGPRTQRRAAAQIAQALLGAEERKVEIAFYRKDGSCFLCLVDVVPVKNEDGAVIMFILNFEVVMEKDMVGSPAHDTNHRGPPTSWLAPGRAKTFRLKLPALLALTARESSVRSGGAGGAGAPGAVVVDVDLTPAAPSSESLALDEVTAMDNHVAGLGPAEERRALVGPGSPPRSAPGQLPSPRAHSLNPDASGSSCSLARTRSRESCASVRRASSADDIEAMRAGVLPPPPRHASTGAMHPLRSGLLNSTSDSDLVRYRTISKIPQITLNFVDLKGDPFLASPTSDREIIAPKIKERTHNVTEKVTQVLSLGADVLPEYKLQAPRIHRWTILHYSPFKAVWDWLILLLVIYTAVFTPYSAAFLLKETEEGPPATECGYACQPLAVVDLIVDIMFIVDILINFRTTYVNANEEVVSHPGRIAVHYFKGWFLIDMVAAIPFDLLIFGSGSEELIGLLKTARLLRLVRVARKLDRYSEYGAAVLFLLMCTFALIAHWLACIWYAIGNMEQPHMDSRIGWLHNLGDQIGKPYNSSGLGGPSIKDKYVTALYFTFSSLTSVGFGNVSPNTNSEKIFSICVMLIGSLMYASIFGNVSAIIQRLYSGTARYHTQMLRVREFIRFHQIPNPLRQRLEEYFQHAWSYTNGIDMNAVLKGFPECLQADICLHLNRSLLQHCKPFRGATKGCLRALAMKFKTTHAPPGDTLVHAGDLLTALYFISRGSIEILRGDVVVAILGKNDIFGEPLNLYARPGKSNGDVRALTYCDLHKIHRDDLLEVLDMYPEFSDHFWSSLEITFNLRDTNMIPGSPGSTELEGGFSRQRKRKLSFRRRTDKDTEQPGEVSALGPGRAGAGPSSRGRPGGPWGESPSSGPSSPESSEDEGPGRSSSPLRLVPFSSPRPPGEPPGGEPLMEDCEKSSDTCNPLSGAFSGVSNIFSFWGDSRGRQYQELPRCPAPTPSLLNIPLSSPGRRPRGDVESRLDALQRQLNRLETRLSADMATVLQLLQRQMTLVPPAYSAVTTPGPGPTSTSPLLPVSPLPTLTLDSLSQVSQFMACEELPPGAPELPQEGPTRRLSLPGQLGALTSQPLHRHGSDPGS
row,Compound,"hERG current change (%, negative = inhibition) at 10uM [%]"
1,O=C(O)c1ccccc1CSc1nnc2c(n1)[nH]c1ccccc12,16.3
2,O=C(O)CCCC(=O)N1CCN(c2nc(-c3ccccc3)c3ccccc3n2)CC1,1.86
3,CCCC[n+]1ccn(C2=C([O-])c3ccccc3C(=O)/C2=N\S(=O)(=O)c2ccccc2)c1,-14.9
4,Cc1cc(Cl)ccc1OCC(=O)N1CCN(C)CC1,-12.5
5,CCN(CC(=O)Nc1ccc([N+](=O)[O-])cc1OC)CC(=O)NC(C)(C)C,-14.3
6,CN1C(=S)N(c2ccccc2)C(=O)/C1=C/c1cccs1,-7.22
7,CC1=Nc2ncnn2C(c2ccccc2)/C1=N\O (stereo not shown),-0.0382
8,O=C(COc1ccc(-c2nnco2)cc1)Nc1ccc(C(F)(F)F)cc1,5.7
9,Cc1ccccc1C(=O)NC(C(=O)Nc1nc2c(s1)CCCC2)C(C)C (stereo not shown),-2.77
10,CC(C)(C)c1nc(CN2CCCCC2)cc(CN2CCCCC2)c1O,-24.2
11,O=C(O)C(=O)O.O=C(c1cccc(F)c1)N1CCC(N2CCCCCC2)CC1,-15.7
12,COc1ccc(/C(N)=N/OC(=O)c2ccc(OC)c([N+](=O)[O-])c2)cc1OC,-65
13,COc1ccc(S(=O)(=O)N2CCN(C(=O)c3cc(-c4ccc(Br)cc4)n[nH]3)CC2)cc1OC,-13.5
14,CC(C)N1CN=C(Nc2nc3ccccc3o2)NC1,25.2
15,COc1cc(/C=N/NC(=O)Cc2c[nH]c3ccccc23)cc(OC)c1OC,1.52
16,Cc1cccc(-n2cnc3cc(C(=O)N4CCc5ccccc54)ccc32)c1,-61.5
17,COc1ccc(/C=C/C(=O)Nc2nc(C)cc(C)n2)cc1OC,15.8
18,COC(=O)C(C(C)=O)C1=C/C(=N\S(=O)(=O)c2ccc(C)cc2)c2ccccc2C1=O (stereo not shown),14.3
19,CC(C)(C)c1ccc(OCCCC(=O)NNC(=O)c2ccccc2O)cc1,14
20,CCOC(=O)c1ccc(CNC(=O)CSc2nnnn2-c2ccc(Cl)cc2)o1,-27.2

row,Compound,"hERG current change (%, negative = inhibition) at 10uM [%]"
1,CCOC(=O)C1CCCN(C(=O)c2cccc([N+](=O)[O-])c2C)C1 (stereo not shown),0.93
2,CC1CN(S(=O)(=O)c2cccc(C(=O)N(CCc3ccccc3)Cc3ccccc3)c2)CC(C)O1 (stereo not shown),-7
3,O=C(/C=C/c1ccc(Cl)cc1Cl)c1cccnc1,7.98
4,O=C(NCCCN1CCc2ccccc2C1)Nc1ccc(Cl)cc1,-65.5
5,N#Cc1nc(-c2ccc(Cl)cc2)oc1NCc1cccc2c1OCO2,8.09
6,O=C(Nc1ccccn1)c1ccc(Cl)c(S(=O)(=O)N2CCOCC2)c1,-5.24
7,COc1ccc(N(CC(=O)NC2CCCC2)C(=O)Cn2nnc(-c3ccc(F)cc3)n2)cc1OC,8.37
8,N/C(COc1cc(Cl)cc(Cl)c1)=N\O,13.9
9,Cl.O=C1CN2Cc3c(ccc(Cl)c3Cl)N=C2N1,-5.07
10,C=C(C)CC(Nc1ccc(OC)cc1)c1ccco1 (stereo not shown),18.3
11,C=CCc1cc(OC)ccc1OCCOCCN1CCc2ccccc2C1.O=C(O)C(=O)O,-71
12,CCN(CC)CCNS(=O)(=O)c1ccc(OC)c(Br)c1,10.5
13,Cc1cccc(NC(=O)c2cc(Cl)nc3ccccc23)c1,9.55
14,CC(C(=O)O)n1c(C(F)(F)F)nc2ccccc21 (stereo not shown),4.94
15,Cc1ccc2c(C)c(C(=O)N(C)Cc3ccncn3)oc2c1C,11.8
16,C=CCOC(=O)C1=C(C)NC(=S)NC1/C=C/c1ccccc1 (stereo not shown),-4.63
17,CCOc1cccc(C(=O)Nc2cccc(C(=O)NC(C)(C)C)c2)c1,-34.6
18,O=C(CNC(=O)C1CCCCC1)Nc1cc(Cl)ccc1Cl,-12.7
19,O=C(O)C[C@H]1c2cc(C(F)(F)F)ccc2S(=O)(=O)N1C1CCCC1,20
20,Cl.OC(CCCCN1CCCCC1)c1ccccc1 (stereo not shown),-18.1

row,Compound,"hERG current change (%, negative = inhibition) at 10uM [%]"
1,O=C(O)Cc1c(C(=O)O)nnn1-c1ccc(Cl)cc1Cl,22.9
2,CCCN(CCC)C(=O)Cn1c(=O)n(CCCCCC(=O)Nc2ccccc2)c(=O)c2sccc21,-45.3
3,Cc1nc(-c2ccc(Cl)cc2)sc1C1(C)CC(c2ccc(Cl)cc2)=NO1 (stereo not shown),26
4,CCOC(=O)CNC(=O)CSc1nnnn1-c1cc(C)ccc1C,6.06
5,CN1c2ccc(Cl)cc2C(=O)NC1c1ccc([N+](=O)[O-])s1 (stereo not shown),-33
6,O=S(CC1CC1(Cl)Cl)CC1CC1(Cl)Cl (stereo not shown),3.18
7,O=C(CNC(=O)c1nc[nH]c1C(=O)NCC(=O)OCc1ccccc1)OCc1ccccc1,17.9
8,CC(=O)c1cc2c(cc1NC(=O)CCC1CCCC1)OCO2,-2.6
9,CC(=O)OC1CC(C)(C)N(OC(=O)CCCN2C(=O)c3ccccc3C2=O)C(C)(C)C1,-12.2
10,CC(C)(C)OC(=O)N1CCCN(C(=O)Nc2cccc(Cl)c2)CC1,-4.88
11,Cc1cc(/C=C2\SC(=S)N(Cc3ccco3)C2=O)c(C)n1-c1ccccc1,8.67
12,O=C(c1ccc(NC(=S)NCc2ccco2)cc1)N1CCOCC1,-4.64
13,Cc1ccc2c(c1)N(CC(=O)N1CCCc3ccccc31)C(=O)C(C)O2 (stereo not shown),-8.46
14,CC(=O)Nc1nc(-c2cccs2)cs1,4
15,Cn1c(=O)n(C)c2cc3[nH]cnc3cc21,9.54
16,COC(=O)CCC(=O)Nc1cccc2ccccc12,11.4
17,COc1ccc(NC(=O)CSc2nncn2C)cc1OC,6.77
18,CC1(C)CC(=O)C(CCCN2C(=O)c3ccccc3C2=O)C(=O)C1,-47.2
